From PubChem BioAssay AID588453 (National Center for Advancing Translational Sciences (NCATS), 2011)
Several values for one entry are separate records, joined by “and”; a condition that tells them apart may be missing. Identical values can stand only once. The whole screen tested about 390,000 compounds, of which about 4,000 (1%) were called active. The shares of active, inactive and inconclusive entries below differ from those in the screen. The call rests on the fitted dose curve; in most records, active means well fitted inhibition curve with a large enough effect; inconclusive means small, poorly fitted or top-dose-only effect; inactive means no such curve, though single readings can be large or run the other way. Where the call is inconclusive, the potency comes from a doubtful curve fit.

What follows are compounds tested against Thioredoxin reductase 1, cytoplasmic (Rattus norvegicus) (UniProt O89049) (assay: qHTS Assay for Inhibitors of Mammalian Selenoprotein Thioredoxin Reductase 1 (TrxR1): qHTS). Settings: recombinant rTrxR1, NADPH fluorescence consumption, selenite substrate; series mostly up to 114 µM; activity change, negative = inhibition: at the top concentration.
Sequence of UniProt O89049 (O89049 whole entry, looked up): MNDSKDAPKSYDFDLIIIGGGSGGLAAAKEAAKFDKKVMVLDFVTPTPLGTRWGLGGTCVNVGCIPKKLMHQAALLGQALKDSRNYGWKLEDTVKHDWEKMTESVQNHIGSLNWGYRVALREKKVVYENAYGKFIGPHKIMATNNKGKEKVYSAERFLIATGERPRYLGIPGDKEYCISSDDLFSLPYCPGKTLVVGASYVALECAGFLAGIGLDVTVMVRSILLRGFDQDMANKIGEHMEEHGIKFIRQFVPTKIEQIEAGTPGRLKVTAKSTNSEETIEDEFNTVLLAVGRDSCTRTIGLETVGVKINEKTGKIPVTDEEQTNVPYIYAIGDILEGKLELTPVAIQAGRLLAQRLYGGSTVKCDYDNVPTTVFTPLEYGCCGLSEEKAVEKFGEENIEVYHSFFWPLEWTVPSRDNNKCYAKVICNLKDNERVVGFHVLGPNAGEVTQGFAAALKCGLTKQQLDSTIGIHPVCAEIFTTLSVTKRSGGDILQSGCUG
How it was run: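 Rat TrxR1 (90 nM in the dispensed reagent) was pre-reduced with 400 uM NADPH for 5 min at room temperature, then incubated with compound for 15 min. After 400 uM selenite was added, NADPH fluorescence (Ex 340/Em 450 nm) was followed for 8 min.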
Further: nearly all actives have a fitted effect of over 65% in size.
On the % scale 0 is the no-effect control and ±100 the full control effect; potency means the concentration at half of the fitted maximal effect; tags describe the fitted curve by direction and shape.

Row | Compound | Potency | activity change, negative = inhibition
1 | CC(C)C(NC(=O)/C(=C\c1ccco1)NC(=O)c1ccco1)C(=O)O (stereo not drawn) | inconclusive: 39.8 µM [inhibitor, partial curve] | –
2 | COc1cc(C(=O)C(=O)c2ccc(OC)c(OC)c2)ccc1O | inconclusive: 22.4 µM [inhibitor, single point] | –
3 | N#CCc1c(C#N)c(N)nc(Nc2ccccc2)c1C#N | inconclusive: 56.2 µM [inhibitor, partial curve, poor fit] | –
4 | Cc1ccccc1N1CC(=O)N(c2ccccc2C)CC1=O | – | inactive: 1.33%
5 | S=C(NC12CC3CC(CC(C3)C1)C2)N1CCCC1 | inconclusive: 89.1 µM [inhibitor, single point] | –
6 | O=C(CCCCl)NC(=S)Nc1cc(C(F)(F)F)ccc1N1CCOCC1 | inconclusive: 56.2 µM [inhibitor, partial curve, poor fit] | –
7 | CC(=O)OC[C@H]1O[C@@H](Oc2cc3ccc(=O)oc3cc2OC(C)=O)[C@H](OC(C)=O)[C@@H](OC(C)=O)[C@@H]1OC(C)=O | – | inactive: -14.4%
8 | CC(=O)NN1C(=O)c2ccc3c4c(ccc(c24)C1=O)C(=O)N(NC(C)=O)C3=O | – | inactive: 43.6% [at 2.29 µM]
9 | Cc1scc(C(=O)NNC(=S)NC(C)c2ccccc2)c1C (stereo not drawn) | inconclusive: 79.4 µM [inhibitor, single point] | –
10 | O=[N+]([O-])c1ccc(NNC(=S)Nc2ccccc2)cc1 | inconclusive: 12.6 µM [inhibitor, partial curve, poor fit] | –
11 | Nc1nc2c(s1)CCc1c-2cnn1-c1ccccc1 | inconclusive: 12.6 µM [inhibitor, full curve, poor fit] and inconclusive: 22.4 µM [inhibitor, single point] | –
12 | CCOC(=O)N1CCc2c(sc3c2c(=O)n(Cc2ccccc2)c(=O)n3Cc2cccc(C)c2)C1 | inactive | –
13 | CCOc1ccc(NS(=O)(=O)c2cc(C(=O)N3CC(C)OC(C)C3)ccc2C)cc1 (stereo not drawn) | – | inactive: -10.5%
14 | Cc1ccc(S(=O)(=O)N2CCOCC2)cc1C(=O)NCc1ccccc1CN1CCCC1 | inconclusive: 89.1 µM [inhibitor, single point] | –
15 | COc1ccc(Cl)cc1C(=O)NCc1ccco1 | inconclusive: 56.2 µM [inhibitor, partial curve, poor fit] | –
16 | Cc1ccc(-c2onc(C)c2C)cc1S(=O)(=O)NCc1ccc(N(C)C)cc1 | – | inactive: -5.22% [at 57.1 µM]
17 | CC(C)CCNC(=O)CCc1nnc(Cc2c[nH]c3ccccc23)o1 | inconclusive: 70.8 µM [inhibitor, single point] | –
18 | COc1cccc(Cn2c(=O)n(-c3cccc(Cl)c3)c(=O)c3c4c(sc32)CN(C(C)=O)CC4)c1 | – | inactive: -5.99%
19 | CSC1=NC(C)(C)C=C(/C=C/c2ccc(Cl)cc2)N1 | inconclusive: 39.8 µM [inhibitor, single point] | –
20 | Cc1sc(NC(=O)CCS(=O)(=O)c2ccccc2)c(C#N)c1C | – | inactive: -7.76%
21 | CCOc1ccc(-c2nnc(SCC(=O)NCc3ccccc3Cl)o2)cc1 | inconclusive: 56.2 µM [inhibitor, partial curve, poor fit] | –
22 | COCc1cc(C)nc2c1C(=O)NC(c1ccc(C)cc1)N2Cc1ccccc1 (stereo not drawn) | – | inactive: 13.5% [at 57.1 µM]

Row | Compound | Potency | activity change, negative = inhibition
23 | COc1ccc(-c2cn(-c3ccccc3)c(=S)[nH]2)cc1OC | inconclusive: 31.6 µM [inhibitor, full curve, poor fit] | –
24 | CCOc1ccc(CNC(=O)C2CCN(c3nnc(-n4c(C)ccc4C)s3)CC2)cc1 | inconclusive: 70.8 µM [inhibitor, single point] | –
25 | C#Cc1ccc([C@@H]2C=C(C(=O)NCc3ccccc3)O[C@H](OCc3ccc(CO)cc3)C2)cc1 | inconclusive: 56.2 µM [inhibitor, single point] | –
26 | Fc1ccccc1N1CC(c2ccccc2)C(c2cccs2)=N1 (stereo not drawn) | inconclusive: 39.8 µM [inhibitor, single point] | –
27 | Cn1nc(-c2ccccc2)nc1-c1ccccc1 | – | inactive: 9.35%
28 | CC(C)(C)OC(=O)NCCc1nnc(SCc2cccc(Cl)c2)o1 | inconclusive: 25.1 µM [inhibitor, partial curve, poor fit] | –
29 | COc1ccc(N(Cc2cc3cc(OC)ccc3[nH]c2=O)C(=O)C2CCCO2)cc1 (stereo not drawn) | – | inactive: 11.2% [at 57.1 µM]
30 | COc1cccc(NC(=O)c2nc3nc(C)cc(C(F)F)n3n2)c1 | inconclusive: 0.794 µM [inhibitor, partial curve, poor fit] | –
31 | CCCCOc1ccc(C(=O)N2CCCCC2CCN2CCOCC2)cc1 (stereo not drawn) | – | inactive: 30%
32 | CN(CC(=O)Nc1c(Cl)cccc1Cl)C(=O)CNC(=O)c1ccc2ccccc2c1 | inconclusive: 6.31 µM [inhibitor, single point] | –
33 | COc1ccc(OC)c(NS(=O)(=O)c2ccc(-n3cccn3)cc2)c1 | inconclusive: 39.8 µM [inhibitor, single point] | –
34 | FC(F)(F)c1cccc(NC(=S)Nc2cccc(NC(=S)Nc3cccc(C(F)(F)F)c3)n2)c1 | inconclusive: 10 µM [inhibitor, partial curve] | –
35 | Cc1ccc(-c2ccc(CCC(=O)O)n2-c2ccc(O)cc2)cc1 | inconclusive: 15.8 µM [inhibitor, full curve] | –
36 | COc1ccc(CNC(=O)CS(=O)Cc2nc(-c3ccc(C)cc3)oc2C)cc1 (stereo not drawn) | inconclusive: 28.2 µM [inhibitor, single point] | –
37 | C/C(=N\Nc1ccc(Cl)c(C(=O)O)c1)c1ccc(N2CCOCC2)cc1 | inconclusive: 39.8 µM [inhibitor, full curve] | –
38 | O=C(/C=C/c1cccs1)NC1CCCC1 | – | inactive: 24.4%
39 | Cc1oc(-c2ccccc2F)nc1CS(=O)CC(=O)NC1CCCC1 (stereo not drawn) | active: 28.2 µM | –
40 | CCC(C)NC(=O)CSc1nnc(-c2cc(-c3cccs3)nc3ccccc23)o1 (stereo not drawn) | – | inactive: 32%
41 | O=C(NCCc1ccccc1)c1ccc(Nc2nc3ccccc3n3nnnc23)cc1 | inconclusive: 89.1 µM [inhibitor, single point] | –
42 | Cc1ccc(NC(=O)CS(=O)CC(=O)Nc2ccccc2-c2ccc(C)o2)cc1 (stereo not drawn) | inconclusive: 15.8 µM [inhibitor, full curve] | –
43 | CNC[C@@H]1Oc2ccc(NC(=O)Nc3ccccc3)cc2C(=O)N([C@@H](C)CO)C[C@H]1C | inconclusive: 25.1 µM [inhibitor, partial curve] | –
